Results as given in the supplement of paper PMC10126150.
Sequences with one replicate were seen in a single cluster, so their values are uncertain.

test system: ATP; assay: switch fluorescence ratio, 500 uM ATP over buffer (Cy3 cluster intensity, sum of 5 cycles each) (fold (ratio)); higher = stronger signal-on switching upon ATP binding; sequences stand for … in TCGTCGGCAGCGTCAGATGTGTATAAGAGACAGTTTTTTTTTTTTTTTTTTTTTTTTT…TC; settings: aptamer strand: ATP DNA aptamer (quencher-CACCTGGGGGAGTATTGCGGAGGAAGG + anchor), 100 nM annealed; ATP concentration: 500 uM; one replicate
Outline: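 Per cluster, summed Cy3 intensity from the target cycles was divided by that from the buffer cycles to give the fluorescence ratio, then averaged per switch-domain sequence. Clusters outside 100-1000 RFU were excluded. The Cy3-labelled switching-strand clusters, on a modified Illumina MiSeq flow-cell, were annealed to 100 nM quencher-labelled ATP aptamer and imaged in selection buffer, then after 15 min with 500 uM ATP at 22 °C, for five cycles with NaOH stripping and re-annealing between them.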
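Note: ATP exposure 15 min at 22 °C before imaging.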

Row | Sequence | switch fluorescence ratio
1 | AGGGCGCTAG | 0.958
2 | AGGGCGGAGA | 1.02
3 | AGGGCTAAGC | 0.961
4 | AGGGCTCAGG | 0.975
5 | AGGGCTGACT | 1.01
6 | AGGGGAAATT | 1
7 | AGGGGAACAT | 1.03
8 | AGGGGAACG | 1.02
9 | AGGGGAAGG | 0.999
10 | AGGGGCAACC | 1.12
11 | AGGGGCGTGT | 0.95
12 | AGGGGCTACA | 0.97
13 | AGGGGCTGTT | 0.937
14 | AGGGGGAAG | 1.02
15 | AGGGGGAGCC | 1.03
16 | AGGGGGATGC | 0.992
17 | AGGGGGCACC | 0.925
18 | AGGGGTAAAC | 1.02
19 | AGGGGTACCG | 0.965
20 | AGGGGTCCGA | 1.01
21 | AGGGGTGTTC | 1.05
22 | AGGGGTTTC | 0.993
23 | AGGGTGATAG | 1.03
24 | AGGGTGATGG | 0.988
25 | AGGGTGGAGG | 1.05
26 | AGGGTTATAT | 1.03

Row | Sequence | switch fluorescence ratio
27 | AGGGTTCCAT | 0.977
28 | AGGGTTCGCG | 1.03
29 | AGGGTTTAGG | 1.01
30 | AGGTAAATCG | 1.01
31 | AGGTAGGAAC | 1.23
32 | AGGTAGGCAA | 1.05
33 | AGGTAGGGG | 0.983
34 | AGGTATAGCA | 1.02
35 | AGGTATATTG | 1.06
36 | AGGTATCCAA | 0.965
37 | AGGTATCCGG | 0.972
38 | AGGTATGAAT | 1.01
39 | AGGTATTAA | 1.02
40 | AGGTCACAGA | 1.07
41 | AGGTCACAGG | 1.09
42 | AGGTCAGAAG | 0.968
43 | AGGTCCGAGC | 1.07
44 | AGGTCCGATA | 1
45 | AGGTCCGTAT | 1.03
46 | AGGTCCTCTT | 1.03
47 | AGGTCGCGC | 0.975
48 | AGGTCGCTCT | 0.974
49 | AGGTCTATTA | 0.967
50 | AGGTCTCTGA | 1
51 | AGGTCTTGTA | 0.965
52 | AGGTCTTTGT | 0.987

Row | Sequence | switch fluorescence ratio
53 | AGGTGACTTT | 1.05
54 | AGGTGAGCTA | 1.01
55 | AGGTGATCCC | 1.03
56 | AGGTGATCGG | 0.988
57 | AGGTGATTC | 1
58 | AGGTGCAGGT | 1.06
59 | AGGTGCGAAG | 0.993
60 | AGGTGCGTAG | 0.979
61 | AGGTGCGTCA | 0.983
62 | AGGTGCTCTG | 1.04
63 | AGGTGCTGAA | 1.01
64 | AGGTGGAAGA | 1
65 | AGGTGGTATT | 0.97
66 | AGGTGTACGT | 1.04
67 | AGGTGTTCTT | 0.998
68 | AGGTGTTGCA | 0.941
69 | AGGTTCTAGT | 1.02
70 | AGGTTCTGC | 0.976
71 | AGGTTGGGAT | 0.999
72 | AGGTTTCC | 0.99
73 | AGGTTTCCTT | 0.967
74 | AGGTTTTGAG | 1.04
75 | AGTAAAAAC | 1
76 | AGTAAACGTT | 1.05
77 | AGTAAAGACG | 1.06
78 | AGTAAATGAC | 0.977

Row | Sequence | switch fluorescence ratio
79 | AGTAACTTTG | 1.06
80 | AGTAATCTTC | 1.07
81 | AGTACAAG | 1
82 | AGTACACAGC | 1.07
83 | AGTACCCGTT | 1.01
84 | AGTACCTACC | 1.59
85 | AGTACGCCGT | 0.982
86 | AGTACGGAGG | 0.986
87 | AGTAGACGTT | 1.04
88 | AGTAGAGAG | 1.02
89 | AGTAGCATTG | 1
90 | AGTAGCCGCC | 1.01
91 | AGTAGCGTC | 1.04
92 | AGTAGCTTAG | 0.984
93 | AGTAGGTACC | 1
94 | AGTATAAGA | 0.974
95 | AGTATAAGGA | 0.971
96 | AGTATAAGTA | 0.958
97 | AGTATAGTCT | 0.908
98 | AGTATCAAAC | 0.991
99 | AGTATGCCA | 0.969
100 | AGTATGCGTG | 1
101 | AGTATGTTTG | 0.951
102 | AGTCAAACTA | 0.973
103 | AGTCACGAGA | 1.02
104 | AGTCATGTT | 0.946

Row | Sequence | switch fluorescence ratio
105 | AGTCCAAATA | 0.998
106 | AGTCCACCAA | 1.06
107 | AGTCCACGCA | 1.18
108 | AGTCCGTTGT | 0.977
109 | AGTCGAAAAC | 1.01
110 | AGTCGACATC | 0.987
111 | AGTCGCTCGT | 0.985
112 | AGTCGCTCT | 0.982
113 | AGTCGGACCT | 1.25
114 | AGTCGGACTC | 1.03
115 | AGTCGGCTAC | 2.21
116 | AGTCGGGGCG | 0.924
117 | AGTCGTGGAG | 0.998
118 | AGTCTATATT | 0.984
119 | AGTCTCGCTC | 1.02
120 | AGTCTCTGCG | 1.13
121 | AGTCTGGCCG | 1.04
122 | AGTCTGGCTC | 1.04
123 | AGTCTTGTGG | 0.991
124 | AGTCTTTCCC | 0.986
125 | AGTGAAACCG | 1
126 | AGTGAACGTT | 0.988
127 | AGTGAATCA | 0.965
128 | AGTGAATTCC | 1.04
129 | AGTGAGGGTT | 1.03
130 | AGTGAGTAAG | 0.964

Row | Sequence | switch fluorescence ratio
131 | AGTGATATCA | 1.02
132 | AGTGATCGA | 1.07
133 | AGTGATGAGC | 1.01
134 | AGTGATGGTC | 0.997
135 | AGTGATTGC | 1.02
136 | AGTGCAGATC | 1.06
137 | AGTGCCATGA | 0.997
138 | AGTGCCGTAG | 0.967
139 | AGTGCGGCCA | 1.01
140 | AGTGCTCG | 0.993
141 | AGTGCTGAAA | 0.97
142 | AGTGGAGGAT | 0.962
143 | AGTGGAGGTT | 0.973
144 | AGTGGATAAT | 0.998
145 | AGTGGCCCAG | 0.971
146 | AGTGGCTTCA | 1
147 | AGTGGGTCAG | 0.968
148 | AGTGGTACTG | 0.993
149 | AGTGTAAAAG | 1.03
150 | AGTGTCACCT | 1.05
151 | AGTGTCCCCC | 1.03
152 | AGTGTCCGTA | 1
153 | AGTGTGAACC | 1.03
154 | AGTGTGCTCA | 1
155 | AGTGTGGGAG | 0.973
156 | AGTGTGTAAG | 0.993

Row | Sequence | switch fluorescence ratio
157 | AGTTAACATC | 1.02
158 | AGTTAATCG | 0.983
159 | AGTTAATTAA | 0.989
160 | AGTTACATC | 1.04
161 | AGTTACTACA | 1.04
162 | AGTTAGACGT | 0.959
163 | AGTTAGTCGA | 0.991
164 | AGTTATGC | 1.05
165 | AGTTATGCAG | 1.08
166 | AGTTATGGC | 1.02
167 | AGTTATGTGA | 0.997
168 | AGTTATTGC | 1
169 | AGTTCACTGC | 1.03
170 | AGTTCCAAGG | 0.99
171 | AGTTCCCTAG | 0.988
172 | AGTTCCGGTC | 1.09
173 | AGTTCCTCCT | 1.75
174 | AGTTCCTTTT | 1.02
175 | AGTTCGATTA | 1.03
176 | AGTTCGTAGC | 1.01
177 | AGTTCTGCTT | 1.06
178 | AGTTGAACCG | 1.02
179 | AGTTGCTTGA | 0.971
180 | AGTTGGGT | 0.998
181 | AGTTGGGTA | 1.01
182 | AGTTGGGTT | 0.99

Row | Sequence | switch fluorescence ratio
183 | AGTTGGTGCT | 1.03
184 | AGTTGTACCC | 0.993
185 | AGTTGTACGT | 0.967
186 | AGTTTAAGAG | 0.987
187 | AGTTTAATTG | 0.959
188 | AGTTTAGCAG | 0.972
189 | AGTTTATTGT | 1.02
190 | AGTTTCGCCA | 0.989
191 | AGTTTGACGC | 0.984
192 | AGTTTGGACG | 0.989
193 | AGTTTGGAGG | 1.04
194 | AGTTTGTATA | 1.02
195 | AGTTTTATAT | 1.01
196 | ATAAAATTGC | 1.09
197 | ATAAAGTAGC | 1.02
198 | ATAAATAATA | 0.976
199 | ATAAATGGTC | 1.04
200 | ATAAATGTGG | 1.01
201 | ATAAATTAGA | 0.955
